Measurements from the supplement of paper PMC7826260.
This is one part of the list. The data describe in vitro nicking of single-stranded DNA by Rep domains at 3 µM enzyme and 37 °C for 1 h; the strands have 90 letters, of which the middle is given. The score is log2 (uncut reads / reads without enzyme); more negative means more cut, near 0 not cut, and no call is made. Reads are scaled to the total; where an enzyme cuts many sequences, the uncut ones exceed 0.

Key:
Test in all cases: uncleaved DNA left, log2 of reads against the no-enzyme library (log2 ratio); higher = less cleavage (more negative = more Rep cleavage of the k-mer); sequences stand for … in CTCGTCCG…ACCGGAGA
[1] = system: T1, Rep nickase domain of Muscovy duck circovirus
T1 sequence (Rep 1-111, printed without the tag): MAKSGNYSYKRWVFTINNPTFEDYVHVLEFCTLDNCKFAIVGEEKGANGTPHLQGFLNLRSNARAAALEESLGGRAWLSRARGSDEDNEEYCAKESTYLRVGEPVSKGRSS
Experimental: (§1)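 A pool of 90-nt single-stranded DNAs with seven random bases just before the constant AC of the nick site (name = the seven bases) was cut by 3 µM recombinant His6-SUMO-tagged Rep nickase domain (300 nM DNA, 50 mM HEPES pH 8.0, 50 mM NaCl, 1 mM MnCl2, 1 h, 37 °C, three replicates). Uncut DNA was amplified and sequenced.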

[2] = system: T2, Rep nickase domain of banana bunchy top virus
T2 sequence (Rep 1-94, printed without the tag): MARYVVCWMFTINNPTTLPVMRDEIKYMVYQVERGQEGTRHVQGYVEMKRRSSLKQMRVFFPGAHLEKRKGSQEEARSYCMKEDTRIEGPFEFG
Experimental: as §1

[3] = system: T3, Rep nickase domain of cabbage leaf curl virus
T3 sequence (Rep 1-116, printed without the tag): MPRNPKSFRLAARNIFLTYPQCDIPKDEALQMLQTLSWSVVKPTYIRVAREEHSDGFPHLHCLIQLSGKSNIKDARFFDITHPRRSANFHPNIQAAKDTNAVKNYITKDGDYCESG
Experimental: as §1

[4] = system: T4, Rep nickase domain of chickpea chlorotic dwarf virus
T4 sequence (Rep 1-124, printed without the tag): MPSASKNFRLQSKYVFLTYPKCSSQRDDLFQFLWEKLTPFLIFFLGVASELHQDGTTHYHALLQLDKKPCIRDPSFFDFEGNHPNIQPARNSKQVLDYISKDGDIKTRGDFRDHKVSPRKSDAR
Experimental: as §1

[5] = system: T5, Rep nickase domain of faba bean necrotic yellows virus
T5 sequence (Rep 1-98, printed without the tag): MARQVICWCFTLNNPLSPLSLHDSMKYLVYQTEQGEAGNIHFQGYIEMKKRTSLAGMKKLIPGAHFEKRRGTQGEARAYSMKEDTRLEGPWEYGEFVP
Experimental: as §1

[6] = system: T6, Rep nickase domain of maize striate mosaic virus
T6 sequence (Rep 1-117, printed without the tag): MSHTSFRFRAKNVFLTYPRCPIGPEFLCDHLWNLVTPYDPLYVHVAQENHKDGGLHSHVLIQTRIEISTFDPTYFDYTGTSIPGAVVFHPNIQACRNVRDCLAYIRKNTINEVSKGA
Experimental: as §1

[7] = system: T7, Rep nickase domain of porcine circovirus 2
T7 sequence (Rep 2-116, printed without the tag): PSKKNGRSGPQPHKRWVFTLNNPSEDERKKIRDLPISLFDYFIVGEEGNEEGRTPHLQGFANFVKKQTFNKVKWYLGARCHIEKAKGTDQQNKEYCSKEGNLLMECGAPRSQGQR
Experimental: as §1

[8] = system: T8, Rep nickase domain of tomato golden mosaic virus
T8 sequence (Rep 1-124, printed without the tag): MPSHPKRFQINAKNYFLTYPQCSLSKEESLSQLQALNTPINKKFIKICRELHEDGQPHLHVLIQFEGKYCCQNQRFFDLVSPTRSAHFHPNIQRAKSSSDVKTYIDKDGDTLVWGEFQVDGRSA
Experimental: as §1

[9] = system: T9, Rep nickase domain of tomato yellow leaf curl virus
T9 sequence (Rep 1-136, printed without the tag): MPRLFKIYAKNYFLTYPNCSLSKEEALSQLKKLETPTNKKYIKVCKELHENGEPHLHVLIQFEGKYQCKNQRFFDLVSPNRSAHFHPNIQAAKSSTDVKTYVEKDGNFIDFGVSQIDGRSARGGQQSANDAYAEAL
Experimental: as §1

[10] = system: T10, Rep nickase domain of wheat dwarf virus
T10 sequence (Rep 1-137, printed without the tag): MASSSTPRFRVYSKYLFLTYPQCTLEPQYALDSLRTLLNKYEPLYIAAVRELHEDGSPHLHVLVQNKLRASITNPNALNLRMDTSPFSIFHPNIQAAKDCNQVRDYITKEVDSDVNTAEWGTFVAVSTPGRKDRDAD
Experimental: as §1

| Sequence | uncleaved DNA left (log2) [1] | uncleaved DNA left (log2) [2] | uncleaved DNA left (log2) [3] | uncleaved DNA left (log2) [4] | uncleaved DNA left (log2) [5] | uncleaved DNA left (log2) [6] | uncleaved DNA left (log2) [7] | uncleaved DNA left (log2) [8] | uncleaved DNA left (log2) [9] | uncleaved DNA left (log2) [10] |
| --- | --- | --- | --- | --- | --- | --- | --- | --- | --- | --- |
| CTATAAG | 0.0859 | 0.0527 | -0.711 | 0.0329 | 0.0762 | -0.947 | 0.139 | 0.167 | 0.198 | 0.00958 |
| AGGTCTA | 0.0316 | 0.0624 | 0.0769 | -0.196 | -0.0349 | 0.584 | -0.203 | 0.043 | 0.0234 | 0.0788 |
| AACATTG | 0.109 | 0.0293 | -0.651 | -0.595 | 0.115 | -1.02 | 0.179 | 0.0113 | 0.0652 | -0.0266 |
| TTAGTAC | -0.739 | -0.0387 | 0.216 | -0.68 | 0.0801 | -0.17 | -1 | 0.0723 | 0.0801 | 0.0365 |
| TCTGTTT | 0.0459 | 0.0255 | -0.0355 | -1.55 | 0.066 | -0.00707 | -0.15 | -0.0202 | -0.0354 | -0.0699 |
| AGCCTCA | 0.0881 | 0.0658 | 0.429 | 0.416 | 0.0434 | 0.819 | -0.0935 | -0.000847 | 0.0288 | 0.108 |
| GACGGAG | -0.0207 | -0.0373 | -0.125 | 0.0805 | -0.116 | -0.564 | 0.0871 | -0.0456 | -0.0665 | -0.0318 |
| CCACACC | -0.0197 | -0.0717 | -0.0205 | -0.648 | -0.14 | -0.583 | -0.188 | -0.0319 | -0.243 | -0.0594 |
| ACAAGTC | 0.0903 | 0.0524 | -0.705 | -0.529 | -0.0163 | -0.894 | 0.168 | 0.0309 | -0.0118 | -0.0925 |
| GTGCTCG | 0.11 | -0.104 | -0.396 | -0.362 | -0.113 | -0.566 | 0.0568 | 0.00976 | -0.0173 | -0.0357 |
| ATATACC | -0.0636 | -0.0342 | -0.161 | -1.08 | -0.0592 | -0.6 | -0.705 | -0.032 | -0.126 | 0.0486 |
| AGGAGTA | 0.0803 | -0.072 | 0.172 | 0.296 | 0.0537 | 0.795 | 0.0579 | 0.0285 | -0.0529 | -0.0278 |
| ACTAATG | 0.176 | 0.059 | -0.406 | -0.346 | 0.159 | -0.999 | 0.205 | 0.181 | 0.0132 | 0.105 |
| TTAGGCA | 0.164 | 0.117 | 0.25 | 0.545 | 0.116 | 0.335 | 0.148 | 0.127 | 0.111 | 0.115 |
| CTATTCG | -0.156 | -0.0344 | -0.732 | 0.594 | -0.0129 | -0.606 | -0.0986 | -0.218 | -0.0216 | -0.0254 |
